Laboratory results reported in PubChem BioAssay (NCATS).
Inconclusive means that the source gave no clear call. Such entries were picked first, then a sample of the others. No potency is given beside an inconclusive call; the fits are too rough. Active and inactive are the calls of the source. Calls come from the whole dose curve; as a rule, active = well fitted inhibition curve with a large enough effect; inconclusive = small, poorly fitted or top-dose-only effect; inactive = flat fitted curve, though single readings scatter. Where a SMILES comes first, the peptide text is derived from it. [ ]: non-standard residue; d: D form. Ala(indol-2-yl) = N[C@@H](Cc1cc2ccccc2[nH]1)C(=O)O; Aib = CC(C)(N)C(=O)O

The compounds below were run against Calcium and integrin-binding protein 1 (Homo sapiens) (UniProt Q99828) (assay: Primary qHTS for Identification of Calcium Integrin Binding Protein 1 (CIB1) Competitor (AID 1508620;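 for activity change, negative = inhibition: GST tagged CIB1 binding a fluorescein labelled alphaIIb integrin peptide tracer; top concentration of the series differs between compounds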)). Conditions: CIB1-GST / FITC-alphaIIb peptide fluorescence polarization; activity change, negative = inhibition: at the top concentration.
UniProt Q99828, sequence (Q99828 whole entry, looked up): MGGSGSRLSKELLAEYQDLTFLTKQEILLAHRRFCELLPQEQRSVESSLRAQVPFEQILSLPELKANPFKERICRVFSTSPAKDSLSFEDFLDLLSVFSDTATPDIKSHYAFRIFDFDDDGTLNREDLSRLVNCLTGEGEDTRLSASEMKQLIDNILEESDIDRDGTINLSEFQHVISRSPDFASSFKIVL
Text: Assay Provider: Ulhas P. Naik, PhD Sidney Kimmel Medical College Thomas Jefferson University, Philadelphia, PA Primary function of platelets is to maintain hemostasis. At the site of vascular injury, platelets adhere to adhesive proteins such as collagen and von Willebrand factor. Adherent platelets are activated and generate soluble platelet agonists such as thrombin, ADP and thromboxane A2. Following exposure of circulating platelets to these agonists, results in platelet shape change, granule secretion and activation of platelet integrin alphaIIb-beta3. Ligand binding to activated integrin alphaIIb-beta3 triggers outside-in signaling, leading to platelet aggregation, stabilization of platelet plug, and clot retraction. Upon atherosclerotic plaque rupture also causes platelet plug formation, which underlies a number of cardiovascular diseases such as myocardial infraction and stroke. A number of anti-platelet drugs such as aspirin, clopidogrel, prasugrel, vorapaxar, and eptifibatide are currently available to prevent the thrombotic complications. However, these anti-platelet agents have several limitations including inherent variability in individual responses, developing resistance, and serious bleeding side effects. For these reasons they are not suitable for long-term protection. Based on the experiences with current anti-platelet drugs, it appears that the most useful therapeutic approach is to intersect the secondary responses such as integrin outside-in signaling or recruitment of platelets by TxA2 and secreted ADP. Compounds, which can largely preserve the primary hemostatic function of platelets but inhibit secondary response will be most desired therapeutic agents for treatment of cardiovascular disease. CIB1 is a calcium integrin binding protein, which specifically interact with the alphaIIb subunit of integrin alphaIIb-beta3. Binding of CIB1 to alphaIIb regulates the outside-in signaling in platelets, which is needed for thrombus stabilization and thrombus growth. […] Therefore, we propose that discovery of a small molecule that can prevent the association of CIB1 and alphaIIb-beta3 will be a potential anti-platelet agent that can block the thrombus formation without undue effect on hemostasis. Reference: [1] Naik MU, Nigam A, Manrai P, et al. CIB1 deficiency results in impaired thrombosis: the potential role of CIB1 in outside-in signaling through integrin alpha IIb beta 3. J Thromb Haemost.
PROTOCOL TABLES SEQUENCE No. (1, 2, 3, etc.); […] (e.g., Cells, Incubation, Reagent, etc.); VALUE and DESCRIPTION. 1; Reagent; 3 uL; Protein or buffer (4/3x) 2; Compound; 46 nL; Control inhibitor / compound library 3; Time; 15 min; Room temperature incubation 4; Reagent; 1 uL; Fluorescent labeled peptide (4x) 5; Time; 1000 rpm; Centrifuge 6; Time; 15 min; Room temperature incubation 7; Detection; Ex 480/ Em 540; ViewLux Fluorescence Read NOTES (numbers refer to sequence above) 1; Protein Mixture: C1B1-GST (final concentrations of 1 uM). […] 3; Room temperature incubation. 4; Fluorescent Labeled Peptide: FITC-aIIb (final concentration of 100 nM). Sequence of alphaIIb peptide: Acetyl-[…]-FITC (purity is 95.83%). 5; Centrifuge 1000 rpm (164 g) for 15 seconds. 6; Room temperature incubation. 7; ViewLux Fluorescent Polization Read: excitation = 480(20) / emission = 540(25) S and P; FITC Dichroic mirror.
% is set by controls: 0 for no effect and ±100 for the full control effect; potency is the fitted concentration of half-maximal effect; tags give direction and shape of the fitted curve.

| Structure (SMILES) | Potency | activity change, negative = inhibition |
| --- | --- | --- |
| CC[C@]1(O)CC[C@H]2[C@@H]3CCC4=CCCC[C@@H]4[C@H]3CC[C@@]21C | active: 31.6 µM |  |
| CCCCCCCCCCCC[N+](C)(C)CCOc1ccccc1 | inconclusive [inhibitor, single point] |  |
| O=c1c(C2CC(c3ccc(-c4ccc(Br)cc4)cc3)Cc3ccccc32)c(O)sc2ccccc12 (stereo not given) | inconclusive [inhibitor, full curve] |  |
| CCOC(=O)CC(SP(=S)(OC)OC)C(=O)OCC (stereo not given) | inconclusive [inhibitor, partial curve] |  |
| COc1ccccc1N1CCNCC1 | inconclusive [inhibitor, single point] |  |
| CCCCCCCCCCCCCCCC[N+](C)(C)C | inconclusive [inhibitor, partial curve] |  |
| C[C@]12CC[C@@H]3c4ccc(OC(=O)N(CCCl)CCCl)cc4CC[C@H]3[C@@H]1CC[C@@H]2O | inconclusive [inhibitor, partial curve] |  |
| CCN(CC)C(=O)N[C@@H]1C=C2c3cccc4[nH]cc(c34)C[C@@H]2N(C)C1 | inconclusive [inhibitor, partial curve, poor fit] |  |
| COP(=S)(OC)SCN1C(=O)c2ccccc2C1=O | inconclusive [inhibitor, full curve] |  |
| CS(=O)(=O)c1ccc(C(=O)C2C(=O)CCCC2=O)c([N+](=O)[O-])c1 | inconclusive [inhibitor, partial curve, poor fit] |  |
| CC=C(C)C(=O)N[C@@H](c1ccccc1)[C@@H](O)C(=O)O[C@H]1C[C@@]2(O)[C@@H](OC(=O)c3ccccc3)[C@@H]3[C@]4(OC(C)=O)CO[C@@H]4C[C@H](O)[C@@]3(C)C(=O)[C@H](OC(C)=O)C(=C1C)C2(C)C |  | inactive: -1.08% |
| CN(C)CCc1c[nH]c2cccc(O)c12 | inconclusive [inhibitor, partial curve, poor fit] |  |
| O=c1oc2ccccc2c(O)c1C(CC(O)c1ccc(-c2ccc(Br)cc2)cc1)c1ccccc1 (stereo not given) | inconclusive [inhibitor, partial curve] |  |
| C1=C2CCCN[C@H]2[C@@H]2C[C@H]1[C@@H]1CCCCN1C2 |  | inactive: -2.32% |
| CC1=C(O)C(=O)C=C2C1=CC=C1[C@@]2(C)CC[C@@]2(C)[C@@H]3C[C@](C)(C(=O)O)CC[C@]3(C)CC[C@]12C | inconclusive [inhibitor, single point] |  |
| O=C1Nc2ccc3ncsc3c2/C1=C/c1cnc[nH]1 | inconclusive [inhibitor, full curve, poor fit] |  |
| Oc1ccc2c3c1O[C@H]1c4[nH]c5c(N=C=S)cccc5c4C[C@@]4(O)[C@@H](C2)N(CC2CC2)CC[C@]314 | inconclusive [inhibitor, partial curve, poor fit] |  |
| Oc1cc(Cl)ccc1Oc1ccc(Cl)cc1Cl | inconclusive [inhibitor, partial curve, poor fit] |  |
| COc1cccc2c1C(=O)c1c(O)c3c(c(O)c1C2=O)C[C@@](O)(C(=O)CO)CC3OC1CC(N2CCOC(OC)C2)C(O)C(C)O1 (stereo not given in full) | inconclusive [inhibitor, full curve, poor fit] |  |
| N[C@@H](Cc1ccc(Oc2cc(I)c(O)c(I)c2)c(I)c1)C(=O)O | inconclusive [inhibitor, partial curve] |  |

| Structure (SMILES) | Potency | activity change, negative = inhibition |
| --- | --- | --- |
| O=C(CCCN1CCC(n2c(=O)[nH]c3ccccc32)CC1)c1ccc(F)cc1 | inconclusive [inhibitor, partial curve, poor fit] |  |
| CN1C(=O)[C@@H](Cc2c[nH]c3ccccc23)N=C(c2ccccc2F)c2ccccc21 |  | inactive: 2.6% [at 114 µM] |
| C=CCC1(C(C)CC)C(=O)NC(=O)NC1=O (stereo not given) |  | inactive: -0.579% [at 114 µM] |
| CC(C)(N)Cc1ccccc1Cl |  | inactive: -3.04% [at 114 µM] |
| S=C(SSC(=S)N1CCCCC1)N1CCCCC1 | inconclusive [inhibitor, full curve] |  |
| C=C1C2(C)CC3C(C)(O)C4=CC(=O)OC(C)(C)C4=CCC3(C)C13C(=O)OC(C)C3(O)C2=O (stereo not given) | inconclusive [inhibitor, partial curve, poor fit] |  |
| Oc1ccc([C@H]2CNCc3c2ccc(O)c3O)cc1O | inconclusive [inhibitor, single point] |  |
| O=c1[nH]c2ccccc2n1C1CCN(CCCC(c2ccc(F)cc2)c2ccc(F)cc2)CC1 | inconclusive [inhibitor, single point] |  |
| CC(C)Oc1cccc(NC(=O)c2ccccc2C(F)(F)F)c1 | inconclusive [inhibitor, partial curve] |  |
| CC[C@@H](CO)NC(=O)[C@@H]1C=C2c3cccc4c3c(cn4C)C[C@H]2N(C)C1 | active: 44.7 µM |  |
| CC(C)(NC(=O)[C@@H](N)Cc1ccc(O)cc1)C(=O)N[C@@H](Cc1cc2ccccc2[nH]1)C(=O)N[C@@H](Cc1ccccc1)C(=O)O (H-Y[Aib][Ala(indol-2-yl)]F-OH) |  | inactive: 3.77% [at 30.2 µM] |
| CCC(C)(OC(C)=O)C(=O)O[C@H]1[C@H](OC(C)=O)C[C@@H]2[C@@](C)([C@@H]3C[C@H]4C=CO[C@H]4O3)[C@H](C)C[C@H](OC(C)=O)[C@@]2(COC(C)=O)[C@@]12CO2 (stereo not given in full) | inconclusive [inhibitor, partial curve, poor fit] |  |
| Cc1c(Cl)c(=O)oc2cc(OP(=O)(OCCCl)OCCCl)ccc12 |  | inactive: 1.62% [at 114 µM] |
| C[CH2][Hg][S]c1ccccc1C(=O)O | active: 22.4 µM |  |
| CC(=O)[O][Hg][c]1ccccc1 | inconclusive [inhibitor, full curve] |  |
| O=C1C(I)=CC(=C(c2cc(I)c(O)c(I)c2)c2ccccc2C(=O)O)C=C1I | inconclusive [inhibitor, full curve] |  |
| COC(=O)N1CCN(C(=O)Cc2ccc(Cl)c(Cl)c2)[C@@H](CN2CCCC2)C1 |  | inactive: -2.26% [at 114 µM] |
| C[C@H](CCC(=O)O)C[C@H](C)C[C@H](C)C(=O)/C=C(\O)[C@H](C)C[C@H](C)C/C=C/[C@@H](C)[C@@H](O)[C@@H](C)[C@@H](O)C[C@@H]1CC[C@@](C)([C@H]2CC[C@@](C)([C@@H](C)O)O2)O1 |  | inactive: -7.21% |
| CC(C)=CCC[C@]1(C)C=Cc2c(O)c3c(c(CC=C(C)C)c2O1)O[C@]12C(=C[C@@H]4CC1C(C)(C)O[C@@]2(C/C=C(/C)C(=O)O)C4=O)C3=O | inconclusive [inhibitor, full curve] |  |
| CN1C[C@H](CNC(=O)OCc2ccccc2)C[C@@H]2c3cccc4c3c(cn4C)C[C@H]21 | inconclusive [inhibitor, partial curve, poor fit] |  |
